No constants are given. Whether binding was seen depends on the method and setting. Binding seen in cells or lysates may run through a third protein. Some results given as binding are weak or reduced against the parent protein; the word gives no strength.
T1: BCL9-2 (BCL9L, B-Cell Lymphoma 9-like) (human (endogenous in MCF7 and T47D)) (UniProt Q86UU0)
T1 sequence: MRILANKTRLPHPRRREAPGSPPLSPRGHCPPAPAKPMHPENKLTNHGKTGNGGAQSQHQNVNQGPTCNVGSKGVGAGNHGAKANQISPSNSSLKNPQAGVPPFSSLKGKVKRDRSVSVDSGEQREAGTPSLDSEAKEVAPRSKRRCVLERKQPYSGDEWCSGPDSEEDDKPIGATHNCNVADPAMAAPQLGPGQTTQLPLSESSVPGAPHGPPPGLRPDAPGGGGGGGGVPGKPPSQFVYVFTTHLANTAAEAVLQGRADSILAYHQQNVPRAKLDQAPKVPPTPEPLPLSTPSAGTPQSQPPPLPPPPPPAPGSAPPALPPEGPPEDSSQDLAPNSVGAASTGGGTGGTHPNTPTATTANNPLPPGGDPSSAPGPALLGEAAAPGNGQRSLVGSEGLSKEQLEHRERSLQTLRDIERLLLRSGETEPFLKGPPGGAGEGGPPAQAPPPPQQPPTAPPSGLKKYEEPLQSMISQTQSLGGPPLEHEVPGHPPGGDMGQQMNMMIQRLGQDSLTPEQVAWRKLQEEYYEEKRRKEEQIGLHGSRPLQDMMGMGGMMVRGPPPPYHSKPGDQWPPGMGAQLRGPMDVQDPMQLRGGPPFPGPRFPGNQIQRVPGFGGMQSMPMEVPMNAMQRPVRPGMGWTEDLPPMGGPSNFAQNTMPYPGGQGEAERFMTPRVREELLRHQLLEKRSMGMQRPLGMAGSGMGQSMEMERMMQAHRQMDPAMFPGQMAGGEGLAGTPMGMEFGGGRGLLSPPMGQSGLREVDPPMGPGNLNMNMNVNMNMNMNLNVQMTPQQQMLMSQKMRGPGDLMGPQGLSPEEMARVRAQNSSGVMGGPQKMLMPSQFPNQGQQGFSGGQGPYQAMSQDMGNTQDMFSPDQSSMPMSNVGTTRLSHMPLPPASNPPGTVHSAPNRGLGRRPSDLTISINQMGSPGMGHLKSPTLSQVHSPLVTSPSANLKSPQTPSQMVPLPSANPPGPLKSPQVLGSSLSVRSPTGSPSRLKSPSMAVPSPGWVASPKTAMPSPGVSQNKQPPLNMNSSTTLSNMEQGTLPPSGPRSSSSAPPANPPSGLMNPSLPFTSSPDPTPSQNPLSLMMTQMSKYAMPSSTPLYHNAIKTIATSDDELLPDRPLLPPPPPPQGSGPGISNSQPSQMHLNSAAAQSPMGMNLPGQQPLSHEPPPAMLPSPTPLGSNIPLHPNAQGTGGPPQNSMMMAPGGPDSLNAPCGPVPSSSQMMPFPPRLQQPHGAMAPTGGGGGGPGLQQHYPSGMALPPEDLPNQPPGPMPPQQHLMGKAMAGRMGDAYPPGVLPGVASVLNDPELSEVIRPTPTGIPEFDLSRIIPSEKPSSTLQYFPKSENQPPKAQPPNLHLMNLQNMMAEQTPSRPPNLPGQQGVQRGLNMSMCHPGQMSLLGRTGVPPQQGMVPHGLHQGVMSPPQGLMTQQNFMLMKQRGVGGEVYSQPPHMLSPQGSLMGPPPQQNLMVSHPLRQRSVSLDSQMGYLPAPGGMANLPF

T2: ß-catenin (human (endogenous in MCF7 and T47D)), P35222
T2 chain: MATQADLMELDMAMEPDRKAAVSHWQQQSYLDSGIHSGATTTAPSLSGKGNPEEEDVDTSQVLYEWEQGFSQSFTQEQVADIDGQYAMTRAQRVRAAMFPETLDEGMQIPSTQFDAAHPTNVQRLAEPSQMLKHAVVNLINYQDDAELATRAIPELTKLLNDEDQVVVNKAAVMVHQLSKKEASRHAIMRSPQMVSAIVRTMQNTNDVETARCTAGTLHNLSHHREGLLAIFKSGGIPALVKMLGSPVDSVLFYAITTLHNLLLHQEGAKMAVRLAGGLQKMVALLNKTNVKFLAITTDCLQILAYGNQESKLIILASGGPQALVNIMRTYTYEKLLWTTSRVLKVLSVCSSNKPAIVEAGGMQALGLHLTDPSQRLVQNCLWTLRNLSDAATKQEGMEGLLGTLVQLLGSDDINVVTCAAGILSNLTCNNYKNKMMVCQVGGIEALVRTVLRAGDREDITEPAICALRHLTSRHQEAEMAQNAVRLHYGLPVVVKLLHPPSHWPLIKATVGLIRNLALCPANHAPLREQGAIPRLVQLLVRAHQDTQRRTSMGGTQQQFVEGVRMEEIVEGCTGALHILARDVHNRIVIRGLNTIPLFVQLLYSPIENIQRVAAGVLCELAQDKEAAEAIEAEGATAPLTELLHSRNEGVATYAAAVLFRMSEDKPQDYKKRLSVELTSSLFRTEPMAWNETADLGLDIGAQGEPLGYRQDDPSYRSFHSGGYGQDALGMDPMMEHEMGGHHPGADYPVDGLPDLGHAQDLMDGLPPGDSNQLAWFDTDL

B1: Pygo2 (protein, UniProt Q9BRQ0 1-406)
chain: MAASAPPPPDKLEGGGGPAPPPAPPSTGRKQGKAGLQMKSPEKKRRKSNTQGPAYSHLTEFAPPPTPMVDHLVASNPFEDDFGAPKVGVAAPPFLGSPVPFGGFRVQGGMAGQVPPGYSTGGGGGPQPLRRQPPPFPPNPMGPAFNMPPQGPGYPPPGNMNFPSQPFNQPLGQNFSPPSGQMMPGPVGGFGPMISPTMGQPPRAELGPPSLSQRFAQPGAPFGPSPLQRPGQGLPSLPPNTSPFPGPDPGFPGPGGEDGGKPLNPPASTAFPQEPHSGSPAAAVNGNQPSFPPNSSGRGGGTPDANSLAPPGKAGGGSGPQPPPGLVYPCGACRSEVNDDQDAILCEASCQKWFHRECTGMTESAYGLLTTEASAVWACDLCLKTKEIQSVYIREGMGQLVAANDG
B2: BCL9-2 (BCL9L, B-Cell Lymphoma 9-like), Q86UU0 1-1499 (protein)
chain: MRILANKTRLPHPRRREAPGSPPLSPRGHCPPAPAKPMHPENKLTNHGKTGNGGAQSQHQNVNQGPTCNVGSKGVGAGNHGAKANQISPSNSSLKNPQAGVPPFSSLKGKVKRDRSVSVDSGEQREAGTPSLDSEAKEVAPRSKRRCVLERKQPYSGDEWCSGPDSEEDDKPIGATHNCNVADPAMAAPQLGPGQTTQLPLSESSVPGAPHGPPPGLRPDAPGGGGGGGGVPGKPPSQFVYVFTTHLANTAAEAVLQGRADSILAYHQQNVPRAKLDQAPKVPPTPEPLPLSTPSAGTPQSQPPPLPPPPPPAPGSAPPALPPEGPPEDSSQDLAPNSVGAASTGGGTGGTHPNTPTATTANNPLPPGGDPSSAPGPALLGEAAAPGNGQRSLVGSEGLSKEQLEHRERSLQTLRDIERLLLRSGETEPFLKGPPGGAGEGGPPAQAPPPPQQPPTAPPSGLKKYEEPLQSMISQTQSLGGPPLEHEVPGHPPGGDMGQQMNMMIQRLGQDSLTPEQVAWRKLQEEYYEEKRRKEEQIGLHGSRPLQDMMGMGGMMVRGPPPPYHSKPGDQWPPGMGAQLRGPMDVQDPMQLRGGPPFPGPRFPGNQIQRVPGFGGMQSMPMEVPMNAMQRPVRPGMGWTEDLPPMGGPSNFAQNTMPYPGGQGEAERFMTPRVREELLRHQLLEKRSMGMQRPLGMAGSGMGQSMEMERMMQAHRQMDPAMFPGQMAGGEGLAGTPMGMEFGGGRGLLSPPMGQSGLREVDPPMGPGNLNMNMNVNMNMNMNLNVQMTPQQQMLMSQKMRGPGDLMGPQGLSPEEMARVRAQNSSGVMGGPQKMLMPSQFPNQGQQGFSGGQGPYQAMSQDMGNTQDMFSPDQSSMPMSNVGTTRLSHMPLPPASNPPGTVHSAPNRGLGRRPSDLTISINQMGSPGMGHLKSPTLSQVHSPLVTSPSANLKSPQTPSQMVPLPSANPPGPLKSPQVLGSSLSVRSPTGSPSRLKSPSMAVPSPGWVASPKTAMPSPGVSQNKQPPLNMNSSTTLSNMEQGTLPPSGPRSSSSAPPANPPSGLMNPSLPFTSSPDPTPSQNPLSLMMTQMSKYAMPSSTPLYHNAIKTIATSDDELLPDRPLLPPPPPPQGSGPGISNSQPSQMHLNSAAAQSPMGMNLPGQQPLSHEPPPAMLPSPTPLGSNIPLHPNAQGTGGPPQNSMMMAPGGPDSLNAPCGPVPSSSQMMPFPPRLQQPHGAMAPTGGGGGGPGLQQHYPSGMALPPEDLPNQPPGPMPPQQHLMGKAMAGRMGDAYPPGVLPGVASVLNDPELSEVIRPTPTGIPEFDLSRIIPSEKPSSTLQYFPKSENQPPKAQPPNLHLMNLQNMMAEQTPSRPPNLPGQQGVQRGLNMSMCHPGQMSLLGRTGVPPQQGMVPHGLHQGVMSPPQGLMTQQNFMLMKQRGVGGEVYSQPPHMLSPQGSLMGPPPQQNLMVSHPLRQRSVSLDSQMGYLPAPGGMANLPF
B3: Pygo2, Q9BRQ0 1-406 (protein)
chain: MAASAPPPPDKLEGGGGPAPPPAPPSTGRKQGKAGLQMKSPEKKRRKSNTQGPAYSHLTEFAPPPTPMVDHLVASNPFEDDFGAPKVGVAAPPFLGSPVPFGGFRVQGGMAGQVPPGYSTGGGGGPQPLRRQPPPFPPNPMGPAFNMPPQGPGYPPPGNMNFPSQPFNQPLGQNFSPPSGQMMPGPVGGFGPMISPTMGQPPRAELGPPSLSQRFAQPGAPFGPSPLQRPGQGLPSLPPNTSPFPGPDPGFPGPGGEDGGKPLNPPASTAFPQEPHSGSPAAAVNGNQPSFPPNSSGRGGGTPDANSLAPPGKAGGGSGPQPPPGLVYPCGACRSEVNDDQDAILCEASCQKWFHRECTGMTESAYGLLTTEASAVWACDLCLKTKEIQSVYIREGMGQLVAANDG

How the values were obtained:
[1] = target: T1, BCL9-2 (BCL9L, B-Cell Lymphoma 9-like) (human (endogenous in MCF7 and T47D)); test: co-IP; endogenous proteins, T47D whole cell lysates, Protein A sepharose; Western blot
[2] = target: T1, BCL9-2 (BCL9L, B-Cell Lymphoma 9-like) (human (endogenous in MCF7 and T47D)); test: co-IP; endogenous proteins, MCF7 whole cell lysates, Protein A sepharose; mouse and rabbit IgG as negative controls; Western blot
[3] = target: T2, ß-catenin (human (endogenous in MCF7 …)); test: co-IP; endogenous proteins, T47D whole cell lysates, Protein A sepharose; Western blot; conditions: remark: other sources report otherwise
[4] = target: T2, ß-catenin (human (endogenous in MCF7 …)); test: co-IP; endogenous proteins, MCF7 whole cell lysates, Protein A sepharose; mouse and rabbit IgG as negative controls; Western blot; conditions: remark: other sources report otherwise

Row | binding [1] | binding [2] | binding [3] | binding [4] | Binder
1 | binds | binds | – | – | B1
2 | – | – | no binding | no binding | B2
3 | – | – | no binding | no binding | B3
